{"source": "paper PMC12136788", "binders": {"B1": {"name": "32373031_32373151_2283_3pUTR_ENSG00000184007_ENST00000602725|human|control|control (ssRNA)", "RNA": "GGGAGUUCUACAGUCCGACGAUCAAAAUGCUACUACACCGCUUCACAAGCAACACAGUCCCUUCACUACUCAUUGGGUUGCACGAUGUCUCUCUUCUACCCUGUUAUGGCCUGUGGACACAUACUCACUAGGCAUCAUUGUUGCAACAGAGGAUUGAGCAUCA"}, "B2": {"name": "chr1:220276048:220276049:+_ENSG00000067704_ENST00000302637|hu_hu|hu_hu_hu_mus_True|18_108 (ssRNA)", "RNA": "GGGAGUUCUACAGUCCGACGAUCGCAAACAGCUUCAUUGGCGGGAAUUGUCCAAGGCUGGGUGGUCCAAACUAAAACGCUAACAGGGGAUGAGGCAUCUGUAAGAGACUCCAACUUUGGAGAAGGCCUCAGGAGGGGGAAUCUCAACAGAGGAUUGAGCAUCA"}, "B3": {"name": "10679844_10679964_1776_3pUTR_ENSG00000112977_ENST00000230895|human|control|control (ssRNA)", "RNA": "GGGAGUUCUACAGUCCGACGAUCGGGAGGAGGGGCGCUGGGUCUGACCAGGUCUGCCUCUGCCCUCACCAGCUGGCAGACGUGAACUGGAGAACAGCACCAGAAAGGCUGGUGGUUGGCAGCUGCUCACGACACAGUUGCUGACAACAGAGGAUUGAGCAUCA"}, "B4": {"name": "45394732_45394852_793_3pUTR_ENSMUSG00000022661_ENSMUST00000163230|mouse|control|control (ssRNA)", "RNA": "GGGAGUUCUACAGUCCGACGAUCUCACAUUCCCCAGGUAUAAAACCUGGCAGAUCACUUCCUUCCCAACUUGAGUUUUGGGGUCUUUGACCCGGAGGAUGCUGGUGACAGAUGUAGUCCCAUUUGAAUGGAAGUGACUCUCGGCAACAGAGGAUUGAGCAUCA"}, "B5": {"name": "chr9:95013113:95013114:-_ENSG00000196305_ENST00000443024|hu_hu|hu_hu_hu_mus_False|28_28 (ssRNA)", "RNA": "GGGAGUUCUACAGUCCGACGAUCCUCAGUCAGAAAGGGCGUGUAAGGGGCCAUCAGUCUGCACAGAGAAAGCAGGACACUGAACAGUGUCUCCAGAGCCAUGACACAAUCCUCCAUCCCACUCUCACCCUUUAACCUCCUCCUCAACAGAGGAUUGAGCAUCA"}, "B6": {"name": "chr10:71921676:71921677:-_ENSG00000079332_ENST00000373241|hu_mus|FALSE|FALSE (ssRNA)", "RNA": "GGGAGUUCUACAGUCCGACGAUCCACACUGCUGAAGCCAUUGUAGAUCCACUCAAAGAUGAAAGACAUUAUUGAUGCUUACAACGGCCCGAGGGGCUCCUCCGGCGGUGGCUGGCGGCGCGACCCUCCCUCAGAGCACACAGACAACAGAGGAUUGAGCAUCA"}, "B7": {"name": "chr1:163138135:163138136:-_ENSG00000143248_ENST00000313961|hu_mus|FALSE|FALSE (ssRNA)", "RNA": "GGGAGUUCUACAGUCCGACGAUCAUUGUAUGGAAUGACAAGGUCAACAGCAGAGUCUGGCUUCUGGAGGAGAAUUCCCAACUUGAUCUUGAUCUCCUUGGCCCUUUCCAGGCAUGAGUGCGGCAGAGCUGCCAGUCCCUUACACAACAGAGGAUUGAGCAUCA"}, "B8": {"name": "chr1:220276048:220276049:+_ENSG00000067704_ENST00000302637|hu_hu|hu_hu_hu_mus_True|88_108 (ssRNA)", "RNA": "B2 RNA with U48C, U117C, A122G, C126U"}, "B9": {"name": "151261908_151262165_2732_CDS_ENSG00000143373_ENST00000336715|human|control|control (ssRNA)", "RNA": "GGGAGUUCUACAGUCCGACGAUCCUGAUGGGUGUUCUUGAGAUGUUCCAGCAUGGUCCUUUUUUGGGCAAAGAGCAGAGGACAAGACGGGCACUUAAAGACACUGACACGCUGGGGCAGCAAGUGCUGGUCGAAGUGUGAGGACAACAGAGGAUUGAGCAUCA"}, "B10": {"name": "chr13:29242638:29242639:+_ENSG00000132963_ENST00000380842|hu_mus|FALSE|FALSE (ssRNA)", "RNA": "GGGAGUUCUACAGUCCGACGAUCGAAUUCCAUCUGUAACUUCAGGGGAGCAAACAGACCCUGGAUGUUCCUCAGCGUGGAAAAGUUCAUCUUGUCCUGGUUGAGCUGGAAGUUUUUUUCUGAUAACUCGAGAGGGUGACUGGGCAACAGAGGAUUGAGCAUCA"}, "B11": {"name": "chr11:23194044:23194045:+_ENSMUSG00000020290_ENSMUST00000020538|mus_hu|FALSE|FALSE (ssRNA)", "RNA": "GGGAGUUCUACAGUCCGACGAUCCUGAAGAAAGAUUUGGUUGUUAACUGGAUUUCCAGGAUUUAAUGAUGUACUUAUUUUUCCUUCUUCAACCAAAUUAAACAUAUAUGCAAGAAUUGAUGCAUGCAUUGUUAAACCAGCAGUCAACAGAGGAUUGAGCAUCA"}, "B12": {"name": "4763567_4763687_2468_3pUTR_ENSG00000101265_ENST00000379400|human|control|control (ssRNA)", "RNA": "GGGAGUUCUACAGUCCGACGAUCCACUGAUGCCCAGCUGCCUGUCAAGCUUCCUGAUAGGAGUCCCAGGGCACAGACUGUUCUUGCCCUUUUCUCCCAUUGGGGUUGGAUUUAAAGAUCACAUAGGUGGCUGCUCAGAGGAGCCAACAGAGGAUUGAGCAUCA"}, "B13": {"name": "chrX:7513246:7513247:-_ENSMUSG00000031161_ENSMUST00000115642|mus_hu|FALSE|FALSE (ssRNA)", "RNA": "GGGAGUUCUACAGUCCGACGAUCUAGGUAGUCAGCAUCACCCAUGCGGGGCCCGUUCCAUGCCACGUUGACGGUGAAGCCUGUGCCCGCAGCCCGGCCGAUCUGGCUGCUGGCACCCUCAUCCCCCAUGGGGAAGAAGGUGCCCAACAGAGGAUUGAGCAUCA"}, "B14": {"name": "chr1:21097501:21097502:-_ENSG00000127483_ENST00000312239|hu_hu|FALSE|FALSE (ssRNA)", "RNA": "GGGAGUUCUACAGUCCGACGAUCUUCUCUUUUCAGUGCUUGUUUAAGGAGAUAACCCCUUCUCUCCAGCUCCAGAGAAGGAUACUUAUGGAUGAUGUAUUUUCGAAUAGCAACCACUGAUGCACCACUCUUCUGGAAGCAUGCCAACAGAGGAUUGAGCAUCA"}}, "note": "Where a chain is given by its changes, count along the chain named. The list shows a part of the results."}
{"biological_target": "T1, UNK ZnF1-3 (human, UniProt Q9C0B0 31-174)", "T1 sequence": "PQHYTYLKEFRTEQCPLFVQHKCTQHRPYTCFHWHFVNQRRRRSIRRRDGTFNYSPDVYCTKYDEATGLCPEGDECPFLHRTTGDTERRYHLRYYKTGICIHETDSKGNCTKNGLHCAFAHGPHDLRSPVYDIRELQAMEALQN", "assay": "nsRBNS (natural sequence RNA bind-n-seq); RBNS binding buffer (assumed for nsRBNS): 25 mM Tris pH 7.5, 150 mM KCl, 3 mM MgCl2, 0.01% Triton X-100, 500 ug/ml BSA, 20 U/ml SUPERase-In, 4 C; UNK is unkempt and MSI1 is Musashi-1; names of the RNAs are library labels; protein concentration not given here; high values mean tight binding", "units": {"binding signal": "enrichment R"}}
{"binder": "B1", "binding signal": 0.984}
{"binder": "B2", "binding signal": 2.1}
{"binder": "B3", "binding signal": 0.852}
{"binder": "B4", "binding signal": 0.891}
{"binder": "B5", "binding signal": 1.26}
{"binder": "B6", "binding signal": 0.65}
{"binder": "B7", "binding signal": 1.23}
{"binder": "B8", "binding signal": 1.88}
{"binder": "B9", "binding signal": 1.39}
{"binder": "B10", "binding signal": 1.42}
{"binder": "B11", "binding signal": 0.918}
{"binder": "B12", "binding signal": 1.05}
{"binder": "B13", "binding signal": 0.608}
{"binder": "B14", "binding signal": 0.826}
